Data taken from the supplement of paper PMC10338343.
± gives the standard deviation. The full ranking holds about 6,600 sequences; the median of “pre-steady-state target cleavage rate” is about 0.07, and the highest 2% start at about 0.72. This is a selection; strong and weak results do not stand in their true shares.

system: MIWI (PIWIL1) piRISC loaded with Kctd7 piRNA (30 nt); test: pre-steady-state target cleavage rate (min^-1); MIWI and MILI are mouse PIWI proteins and EfPiwi is from a freshwater sponge; tags in brackets are library labels; higher = faster piRNA-guided slicing of the target; conditions: guide: Kctd7 piRNA 5'p-UGUUAAUCUCUCAGAGAAGGUGACAGUGAU; auxiliary factor: 500 nM mouse GTSF1
Method in brief: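 In HEPES–potassium acetate buffer at 33 °C, […] transcribed, DNA-blocked target RNA library was mixed with 1 nM active affinity-purified piRISC carrying one synthetic guide, with or without 500 nM GTSF1 partner protein, for 0–8 or 0–960 min. Uncleaved targets were sequenced and normalised to depth and to weakly complementary targets; three trials were pooled and k3 was capped at 0.0001 min^-1. The pre-steady-state cleavage rate followed from a burst-and-steady-state fit.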
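Further: 1 nM active piRISC with 0.1 nM target library at 33 °C single turnover.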

Compared with UAGACUGUCACCAUCUCUGAGAGAUUAUGA, UAGUGACACUCCUUCACUGAGAGAUUAACA is higher in “pre-steady-state target cleavage rate” value: 0.0129 ± 0.0051 for the first, 0.165 ± 0.018 for the second.

First: AUCAGUGUCACCUUCACUGAGAGAUUAACA
Second: UAGACUGUCACCUUCACUGAGAGAUUUACA
The “pre-steady-state target cleavage rate” value of the first is higher: 0.569 ± 0.03 for the first, 0.361 ± 0.048 for the second.

Going from UUCACUGUCACCUUCUCUGUGAGUUUAACA to UACACUGUCACCUUCUCUGAGAGAUUUAGA, the “pre-steady-state target cleavage rate” value falls from 0.117 ± 0.014 to 0.0777 ± 0.022.

Going from UACACAGUCACCUUCUCUGAGAGAUAUUGA to UAGUGAGUCUCCUUCUCUGAGAGAUUUACA, the “pre-steady-state target cleavage rate” value falls from 0.039 ± 0.015 to 0.0124 ± 0.0051.

Going from UACACUGUCACCUUCUCUCAGAGAUUAUCA to UACACUGUCCCUUCUCUGAGAGAUUAACA, the “pre-steady-state target cleavage rate” value rises from 0.0407 ± 0.011 to 0.609 ± 0.04.

Going from UACACUGACACCUUCUCUGAGAGUUUAACA to UACACUGUCACCUUCUCUGAGAGUUAUUGA, the “pre-steady-state target cleavage rate” value falls from 0.904 ± 0.3 to 0.134 ± 0.039.

First: UAGACUGUCUCCUUCUCUGAGAGAUAAACA
Second: UAGUGACUCAACCUUCUCUGAGAGAUUAACA
The “pre-steady-state target cleavage rate” value of the first is higher: 0.354 ± 0.048 for the first, 0.173 ± 0.018 for the second.

UAGUGACAGUCCAUUCUCUGAGAGAUUAACA and UAGUGAGUGACCUUCUCUGAGAGAAUAACA are within error of each other in “pre-steady-state target cleavage rate” value: 0.127 ± 0.015 for the first, 0.141 ± 0.028 for the second.

Going from UAGUGACAGACCUUCUCUGUGAGAUUUACA to UAGUGACACACCCUUCUCUGAGAGAUUAACA, the “pre-steady-state target cleavage rate” value rises from 0.0147 ± 0.0053 to 0.153 ± 0.021.

Compared with UAGUGUGUCACCUUCUCUGGGAGAUUAACA, UUCACUGUCACGUACUCUGAGAGAUUAACA is higher in “pre-steady-state target cleavage rate” value: 0.329 ± 0.024 for the first, 0.441 ± 0.033 for the second.

UAGACUGUCACCUUGUGUGAGAGAUUAACA and UAGUGUGUCACCUUCACUGAGAGAUUAAGA are within error of each other in “pre-steady-state target cleavage rate” value: 0.133 ± 0.0079 for the first, 0.11 ± 0.026 for the second.

Compared with UAGUGUGUCACCUUCUCUGAGAAUUAACA, UAGUCAGUCACCUUCUCUGAGAGAUAAACA is higher in “pre-steady-state target cleavage rate” value: 0.0771 ± 0.028 for the first, 0.343 ± 0.024 for the second.

Compared with UAGACUGUCACCUUCACUGAGAGAUAUUGA, UAGUGACUGACCUUCUCUGAGAGAUUUACA is higher in “pre-steady-state target cleavage rate” value: 0.0458 ± 0.011 for the first, 0.236 ± 0.03 for the second.

UACACUGUCACCUUCUCGGAGAGAUUAACA and UAGUGACACACCUUCUCUGAGAGAUUUACA are within error of each other in “pre-steady-state target cleavage rate” value: 0.289 ± 0.023 for the first, 0.279 ± 0.038 for the second.

First: UAGUGACACACCUUCUCAGAGAGAUUUACA
Second: UAGACUGUCACCAUCUCUGAGAGAUAAACA
The “pre-steady-state target cleavage rate” value of the first is lower: 0.0386 ± 0.0096 for the first, 0.289 ± 0.033 for the second.

Compared with UAGUGUGUCACCUUCUCUGGAGAUUAACA, UACACUGUCACCAACUCUGAGAGAUUAACA is higher in “pre-steady-state target cleavage rate” value: 0.195 ± 0.018 for the first, 0.391 ± 0.033 for the second.

Going from UACACAGUCACCUUCUCUGAGAGAUUUACA to UACACUGUCACCUUCUCUGAGAGAUUAUGA, the “pre-steady-state target cleavage rate” value falls from 0.398 ± 0.053 to 0.0837 ± 0.024.

Compared with UAGUGACACACCUUCUCUGAGAAGAUUAACA, AUCACUGUCAGGUUCUCUGAGAGAUUAACA is higher in “pre-steady-state target cleavage rate” value: 0.0206 ± 0.0043 for the first, 0.653 ± 0.043 for the second.

Going from UUCACUGUCACCUUGUCUGAGAGUUUAACA to UAGUGAGACACCUUCUCUCAGAGAUUAACA, the “pre-steady-state target cleavage rate” value falls from 0.422 ± 0.077 to 0.0322 ± 0.0045.

Going from AUCACUGUCACCUUCUCUGAGUGUUUAACA to UAGUGUGUCACCUUCUCUGAGAGAUCAACA, the “pre-steady-state target cleavage rate” value rises from 0.0429 ± 0.0084 to 0.207 ± 0.029.

First: UAGUGACUCACCUUCACUCAGAGAUUAACA
Second: UAGUGACAGAGCUUCUCUGAGAGUUUAACA
The “pre-steady-state target cleavage rate” value of the first is lower: 0.00579 ± 0.0035 for the first, 0.018 ± 0.0046 for the second.

Compared with UAGACUGUCACGUUCUCUGAGAGAUUUACA, UACACUGUCUCCUUCUCUGAGAGUUUAACA is higher in “pre-steady-state target cleavage rate” value: 0.13 ± 0.02 for the first, 0.452 ± 0.064 for the second.

First: UAGUGACUCACCUACUCAGAGAGAUUAACA
Second: UAGACUGUCACCUUCACUGAGAGUUUAACA
The “pre-steady-state target cleavage rate” value of the first is lower: 0.0146 ± 0.0038 for the first, 0.339 ± 0.051 for the second.

First: AUGACUGUCACCUUCUCUGAGAGAUUUACA
Second: UAGUGACUCACCUUCACUGAGAGAUUAUGA
The “pre-steady-state target cleavage rate” value of the first is higher: 0.402 ± 0.049 for the first, 0.0295 ± 0.0095 for the second.

Going from UAGUGACACACCUUCACUGAGAGAUUUACA to UAGACUGUGACCUUCUCUGAGAGAUAAACA, the “pre-steady-state target cleavage rate” value rises from 0.166 ± 0.035 to 0.279 ± 0.031.

Compared with UACACUGUCUCCUACUCUGAGAGAUUAACA, UAGUCGGUCACCUUCUCUGAGAGAUUAACA is higher in “pre-steady-state target cleavage rate” value: 0.571 ± 0.026 for the first, 0.73 ± 0.037 for the second.

UAGUCUGUCACCUUCAUCUGAGAGAUUAACA and UAGUGUGACACCUUCUCUGUGAGAUUAACA are within error of each other in “pre-steady-state target cleavage rate” value: 0.136 ± 0.032 for the first, 0.159 ± 0.014 for the second.

Compared with UAGUGUGUCACCUUCUCUGAGAGAUUAGCA, UACUCUGUCAGCUUCUCUGAGAGAUUAACA is higher in “pre-steady-state target cleavage rate” value: 0.187 ± 0.023 for the first, 0.628 ± 0.03 for the second.

First: UACACUGUCACCUUCUCUGAGACAUUAUCA
Second: UAGUGAGUCACGUUCUCUGAGAGAUUAUCA
The “pre-steady-state target cleavage rate” value of the first is lower: 0.0386 ± 0.011 for the first, 0.221 ± 0.031 for the second.

Going from UAGUGACUCUCCUUCUCUGAGAGAAUAACA to AUCACUGUCACCUUUUCUGAGAGAUUAACA, the “pre-steady-state target cleavage rate” value rises from 0.00661 ± 0.0021 to 0.748 ± 0.029.

UACACAGUCACCUUCUCUGACAGAUUAACA and UAGACUGUCACCUUUCUCUGAGAGAUUAACA are within error of each other in “pre-steady-state target cleavage rate” value: 0.482 ± 0.036 for the first, 0.538 ± 0.039 for the second.

Going from AUCACUGUCACCUUCACAGAGAGAUUAACA to UACACUGUCACCUUCAGAGAGAGAUUUUGA, the “pre-steady-state target cleavage rate” value falls from 0.088 ± 0.017 to 0.046 ± 0.024.

Compared with UACACUCUCACCUUCUCUGAGAGAAUAACA, UACAUGUCACCUUCUCUGAGAGAUUAACA is higher in “pre-steady-state target cleavage rate” value: 0.132 ± 0.019 for the first, 0.451 ± 0.026 for the second.

Compared with AUCACUGUCUCCUUCUCUGAGAGAUUAACA, AUCACUGUCAGCUUCUCUGAGAGAUUUACA is lower in “pre-steady-state target cleavage rate” value: 0.697 ± 0.042 for the first, 0.27 ± 0.035 for the second.

First: UAGUGACUCACCUUCUCUGAGAGAUAAUCA
Second: UAGACUGUCACCUUCACUGAGACAUUAACA
The “pre-steady-state target cleavage rate” value of the first is lower: 0.128 ± 0.026 for the first, 0.233 ± 0.028 for the second.

Compared with UAGUGACAGUCCUUGUCUGAGAGAUAAACA, UAGUCUGUCACGUUGUCUGAGAGAUUAACA is higher in “pre-steady-state target cleavage rate” value: 0.0114 ± 0.0038 for the first, 0.29 ± 0.02 for the second.
